Some of the results follow.
Assays:
Assay in all cases: glycan array binding signal (z-score within array); higher = stronger binding
Conditions in all cases: glycan notation: IUPAC condensed, linker removed
[1] = target: GlcNAc(a1-4)Gal(b1-3)GlcNAc
Procedure, shortened: (§1)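 The binding signal is a Z-score computed within each array and averaged over linkers. Arrays of the same protein sequence at different concentrations or buffers were also averaged together. Data originate from 3228 arrays in the Consortium for Functional Glycomics database, kept only where the protein sequence was available.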

[2] = target: GlcNAc(a1-4)Gal(b1-4)GalNAc
Procedure, shortened: as §1

[3] = target: GlcNAc(a1-4)Gal(b1-4)GlcNAc
Procedure, shortened: as §1

[4] = target: GlcNAc(a1-4)Gal(b1-4)GlcNAc(b1-3)Gal(b1-4)Glc
Procedure, shortened: as §1

[5] = target: GlcNAc(a1-4)Gal(b1-4)GlcNAc(b1-3)Gal(b1-4)GlcNAc
Procedure, shortened: as §1

[6] = target: GlcNAc(a1-4)Gal(b1-4)GlcNAc(b1-3)Gal(b1-4)GlcNAc(b1-3)Gal(b1-4)GlcNAc
Procedure, shortened: as §1

[7] = target: GlcNAc(a1-4)Gal(b1-4)GlcNAc(b1-3)Gal(b1-4)[Fuc(a1-3)]GlcNAc(b1-3)Gal(b1-4)[Fuc(a1-3)]GlcNAc
Procedure, shortened: as §1

[8] = target: GlcNAc(a1-6)Gal(b1-4)GlcNAc
Procedure, shortened: as §1

[9] = target: GlcNAc(b1-2)Gal(b1-3)GalNAc
Procedure, shortened: as §1

[10] = target: GlcNAc(b1-2)Man(a1-3)[GlcNAc(b1-2)Man(a1-6)]Man(b1-4)GlcNAc(b1-4)GlcNAc
Procedure, shortened: as §1

[11] = target: GlcNAc(b1-2)Man(a1-3)[GlcNAc(b1-2)Man(a1-6)]Man(b1-4)GlcNAc(b1-4)[Fuc(a1-6)]GlcNAc
Procedure, shortened: as §1

[12] = target: GlcNAc(b1-2)Man(a1-3)[GlcNAc(b1-4)][GlcNAc(b1-2)Man(a1-6)]Man(b1-4)GlcNAc(b1-4)GlcNAc
Procedure, shortened: as §1

[13] = target: GlcNAc(b1-2)Man(a1-3)[GlcNAc(b1-4)][GlcNAc(b1-2)Man(a1-6)]Man(b1-4)GlcNAc(b1-4)[Fuc(a1-6)]GlcNAc
Procedure, shortened: as §1

[14] = target: GlcNAc(b1-2)[GlcNAc(b1-4)]Man(a1-3)[GlcNAc(b1-2)Man(a1-6)]Man(b1-4)GlcNAc(b1-4)GlcNAc
Procedure, shortened: as §1

[15] = target: GlcNAc(b1-2)[GlcNAc(b1-4)]Man(a1-3)[GlcNAc(b1-4)][GlcNAc(b1-2)Man(a1-6)]Man(b1-4)GlcNAc(b1-4)GlcNAc
Procedure, shortened: as §1

[16] = target: GlcNAc(b1-2)[GlcNAc(b1-4)]Man(a1-3)[GlcNAc(b1-4)][GlcNAc(b1-2)[GlcNAc(b1-6)]Man(a1-6)]Man(b1-4)GlcNAc(b1-4)GlcNAc
Procedure, shortened: as §1

[17] = target: GlcNAc(b1-2)[GlcNAc(b1-4)]Man(a1-3)[GlcNAc(b1-4)][GlcNAc(b1-2)[GlcNAc(b1-6)]Man(a1-6)]Man(b1-4)GlcNAc(b1-4)[Fuc(a1-6)]GlcNAc
Procedure, shortened: as §1

[18] = target: GlcNAc(b1-2)[GlcNAc(b1-6)]Man(a1-6)[GlcNAc(b1-2)Man(a1-3)]Man(b1-4)GlcNAc(b1-4)GlcNAc
Procedure, shortened: as §1

[19] = target: GlcNAc(b1-2)[GlcNAc(b1-6)]Man(a1-6)[GlcNAc(b1-2)Man(a1-3)]Man(b1-4)GlcNAc(b1-4)[Fuc(a1-6)]GlcNAc
Procedure, shortened: as §1

[20] = target: GlcNAc(b1-2)[GlcNAc(b1-6)]Man(a1-6)[GlcNAc(b1-4)][GlcNAc(b1-2)Man(a1-3)]Man(b1-4)GlcNAc(b1-4)GlcNAc
Procedure, shortened: as §1

GlcNAc(b1-3)Fuc = target: GlcNAc(b1-3)Fuc
Procedure, shortened: as §1

GlcNAc(b1-3)Gal = target: GlcNAc(b1-3)Gal
Procedure, shortened: as §1

[21] = target: GlcNAc(b1-3)Gal(b1-3)GalNAc
Procedure, shortened: as §1

GlcNAc(b1-3)Gal(b1-4)Glc = target: GlcNAc(b1-3)Gal(b1-4)Glc
Procedure, shortened: as §1

[22] = target: GlcNAc(b1-3)Gal(b1-4)GlcNAc
Procedure, shortened: as §1

[23] = target: GlcNAc(b1-3)Gal(b1-4)GlcNAc(b1-2)Man(a1-3)[GlcNAc(b1-3)Gal(b1-4)GlcNAc(b1-2)Man(a1-6)]Man(b1-4)GlcNAc(b1-4)GlcNAc
Procedure, shortened: as §1

[24] = target: GlcNAc(b1-3)Gal(b1-4)GlcNAc(b1-2)Man(a1-3)[GlcNAc(b1-3)Gal(b1-4)GlcNAc(b1-2)Man(a1-6)]Man(b1-4)GlcNAc(b1-4)[Fuc(a1-6)]GlcNAc
Procedure, shortened: as §1

[25] = target: GlcNAc(b1-3)Gal(b1-4)GlcNAc(b1-2)[GlcNAc(b1-3)Gal(b1-4)GlcNAc(b1-6)]Man(a1-6)[GlcNAc(b1-3)Gal(b1-4)GlcNAc(b1-2)Man(a1-3)]Man(b1-4)GlcNAc(b1-4)GlcNAc
Procedure, shortened: as §1

[26] = target: GlcNAc(b1-3)Gal(b1-4)GlcNAc(b1-3)Gal(b1-4)GlcNAc
Procedure, shortened: as §1

[27] = target: GlcNAc(b1-3)Gal(b1-4)GlcNAc(b1-3)Gal(b1-4)GlcNAc(b1-2)Man(a1-3)[GlcNAc(b1-3)Gal(b1-4)GlcNAc(b1-3)Gal(b1-4)GlcNAc(b1-2)Man(a1-6)]Man(b1-4)GlcNAc(b1-4)GlcNAc
Procedure, shortened: as §1

[28] = target: GlcNAc(b1-3)Gal(b1-4)GlcNAc(b1-3)Gal(b1-4)GlcNAc(b1-2)Man(a1-3)[GlcNAc(b1-3)Gal(b1-4)GlcNAc(b1-3)Gal(b1-4)GlcNAc(b1-2)Man(a1-6)]Man(b1-4)GlcNAc(b1-4)[Fuc(a1-6)]GlcNAc
Procedure, shortened: as §1

[29] = target: GlcNAc(b1-3)Gal(b1-4)GlcNAc(b1-3)Gal(b1-4)GlcNAc(b1-2)[GlcNAc(b1-3)Gal(b1-4)GlcNAc(b1-3)Gal(b1-4)GlcNAc(b1-6)]Man(a1-6)[GlcNAc(b1-3)Gal(b1-4)GlcNAc(b1-3)Gal(b1-4)GlcNAc(b1-2)Man(a1-3)]Man(b1-4)GlcNAc(b1-4)[Fuc(a1-6)]GlcNAc
Procedure, shortened: as §1

[30] = target: GlcNAc(b1-3)Gal(b1-4)GlcNAc(b1-3)Gal(b1-4)GlcNAc(b1-3)Gal(b1-4)GlcNAc(b1-2)Man(a1-3)[GlcNAc(b1-3)Gal(b1-4)GlcNAc(b1-3)Gal(b1-4)GlcNAc(b1-3)Gal(b1-4)GlcNAc(b1-2)Man(a1-6)]Man(b1-4)GlcNAc(b1-4)GlcNAc
Procedure, shortened: as §1

[31] = target: GlcNAc(b1-3)Gal(b1-4)GlcNAc(b1-3)Gal(b1-4)GlcNAc(b1-3)Gal(b1-4)GlcNAc(b1-2)Man(a1-3)[GlcNAc(b1-3)Gal(b1-4)GlcNAc(b1-3)Gal(b1-4)GlcNAc(b1-3)Gal(b1-4)GlcNAc(b1-2)Man(a1-6)]Man(b1-4)GlcNAc(b1-4)[Fuc(a1-6)]GlcNAc
Procedure, shortened: as §1

[32] = target: GlcNAc(b1-3)Gal(b1-4)GlcNAc(b1-3)Gal(b1-4)GlcNAc(b1-3)Gal(b1-4)GlcNAc(b1-2)[GlcNAc(b1-3)Gal(b1-4)GlcNAc(b1-3)Gal(b1-4)GlcNAc(b1-3)Gal(b1-4)GlcNAc(b1-6)]Man(a1-6)[GlcNAc(b1-3)Gal(b1-4)GlcNAc(b1-3)Gal(b1-4)GlcNAc(b1-3)Gal(b1-4)GlcNAc(b1-2)Man(a1-3)]Man(b1-4)GlcNAc(b1-4)[Fuc(a1-6)]GlcNAc
Procedure, shortened: as §1

[33] = target: GlcNAc(b1-3)Gal(b1-4)GlcNAc(b1-3)Gal(b1-4)GlcNAc(b1-3)Gal(b1-4)GlcNAc(b1-3)Gal(b1-4)GlcNAc(b1-2)Man(a1-3)[GlcNAc(b1-3)Gal(b1-4)GlcNAc(b1-3)Gal(b1-4)GlcNAc(b1-3)Gal(b1-4)GlcNAc(b1-3)Gal(b1-4)GlcNAc(b1-2)Man(a1-6)]Man(b1-4)GlcNAc(b1-4)GlcNAc
Procedure, shortened: as §1

[34] = target: GlcNAc(b1-3)Gal(b1-4)GlcNAc(b1-3)Gal(b1-4)GlcNAc(b1-3)Gal(b1-4)GlcNAc(b1-3)Gal(b1-4)GlcNAc(b1-2)Man(a1-3)[GlcNAc(b1-3)Gal(b1-4)GlcNAc(b1-3)Gal(b1-4)GlcNAc(b1-3)Gal(b1-4)GlcNAc(b1-3)Gal(b1-4)GlcNAc(b1-2)Man(a1-6)]Man(b1-4)GlcNAc(b1-4)[Fuc(a1-6)]GlcNAc
Procedure, shortened: as §1

[35] = target: GlcNAc(b1-3)Gal(b1-4)GlcNAc(b1-3)Gal(b1-4)GlcNAc(b1-3)Gal(b1-4)GlcNAc(b1-3)Gal(b1-4)GlcNAc(b1-2)[GlcNAc(b1-3)Gal(b1-4)GlcNAc(b1-3)Gal(b1-4)GlcNAc(b1-3)Gal(b1-4)GlcNAc(b1-3)Gal(b1-4)GlcNAc(b1-6)]Man(a1-6)[GlcNAc(b1-3)Gal(b1-4)GlcNAc(b1-3)Gal(b1-4)GlcNAc(b1-3)Gal(b1-4)GlcNAc(b1-3)Gal(b1-4)GlcNAc(b1-2)Man(a1-3)]Man(b1-4)GlcNAc(b1-4)[Fuc(a1-6)]GlcNAc
Procedure, shortened: as §1

B1: diCBM40 CPF071 (Clostridium perfringens) (protein)
chain: MAHHHHHHVGTGSNDDDDKSPDPMLSSLGEYKDINLESSNASNITYDLEKYKNLDEGTIVVRFNSKDSKIQSLLGISNSKTKNGYFNFYVTNSRVGFELRNQKNEGNTQNGTENLVHMYKDVALNDGDNTVALKIEKNKGYKLFLNGKMIKEVKDTNTKFLNNIENLDSAFIGKTNRYGQSNEYNFKGNIGFMNIYNEPLGDDYLLSKTGETKALNGSELGSGSGLSSLGEYKDINLESSNASNITYDLEKYKNLDEGTIVVRFNSKDSKIQSLLGISNSKTKNGYFNFYVTNSRVGFELRNQKNEGNTQNGTENLVHMYKDVALNDGDNTVALKIEKNKGYKLFLNGKMIKEVKDTNTKFLNNIENLDSAFIGKTNRYGQSNEYNFKGNIGFMNIYNEPLGDDYLLSKTGETK
For B1, the “glycan array binding signal (z-score)” value [1] was -0.308, the “glycan array binding signal (z-score)” value [2] was 0.14 and the “glycan array binding signal (z-score)” value [3] was -0.233. For the same binder, the “glycan array binding signal (z-score)” value [4] was -0.283, the “glycan array binding signal (z-score)” value [5] was -0.335 and the “glycan array binding signal (z-score)” value [6] was -0.311. For the same binder, the “glycan array binding signal (z-score)” value [7] was -0.032, the “glycan array binding signal (z-score)” value [8] was -0.35 and the “glycan array binding signal (z-score)” value [9] was -0.324. For the same binder, the “glycan array binding signal (z-score)” value [10] was -0.319, the “glycan array binding signal (z-score)” value [11] was -0.293 and the “glycan array binding signal (z-score)” value [12] was -0.326. For the same binder, the “glycan array binding signal (z-score)” value [13] was -0.342, the “glycan array binding signal (z-score)” value [14] was -0.274 and the “glycan array binding signal (z-score)” value [15] was -0.262. For the same binder, the “glycan array binding signal (z-score)” value [16] was -0.298, the “glycan array binding signal (z-score)” value [17] was -0.326 and the “glycan array binding signal (z-score)” value [18] was -0.337. For the same binder, the “glycan array binding signal (z-score)” value [19] was -0.346, the “glycan array binding signal (z-score)” value [20] was -0.343 and the “glycan array binding signal (z-score)” value (GlcNAc(b1-3)Fuc) was -0.295. For the same binder, the “glycan array binding signal (z-score)” value (GlcNAc(b1-3)Gal) was -0.239, the “glycan array binding signal (z-score)” value [21] was -0.056 and the “glycan array binding signal (z-score)” value (GlcNAc(b1-3)Gal(b1-4)Glc) was -0.116. The “glycan array binding signal (z-score)” value [22] was -0.281, the “glycan array binding signal (z-score)” value [23] was -0.242 and the “glycan array binding signal (z-score)” value [24] was -0.284. The “glycan array binding signal (z-score)” value [25] was 0.062, the “glycan array binding signal (z-score)” value [26] was -0.337 and the “glycan array binding signal (z-score)” value [27] was -0.325. The “glycan array binding signal (z-score)” value [28] was -0.186, the “glycan array binding signal (z-score)” value [29] was -0.055 and the “glycan array binding signal (z-score)” value [30] was 0.045. The “glycan array binding signal (z-score)” value [31] was -0.187, the “glycan array binding signal (z-score)” value [32] was 0.036 and the “glycan array binding signal (z-score)” value [33] was -0.157. The “glycan array binding signal (z-score)” value [34] was -0.206 and the “glycan array binding signal (z-score)” value [35] was -0.23.
